The target of test [1] is STING (endogenous) (UniProt Q86WV6). Nature of the test: co-IP; endogenous proteins; cell lysate precipitated with anti-STING antibodies plus Protein A/G, immunoblot; cells treated with Kyn, 5HTP, KynA, 3MC, BaP or cisplatin; also SLC7A5 knocked-out cells.
For test [2], the target named is MYC-AhR (WT) (UniProt P35869). Nature of the test: co-IP; HEK293T cells transfected with tagged proteins; whole-cell extracts incubated with anti-myc beads, washed five times with low-salt lysis buffer, immunoblot; some samples treated with Kyn or cGAMP.
Test [3] deals with MYC-AhR (1-120) (UniProt P35869). The description is as above.
Test [4] concerns the target MYC-AhR (1-277;424-848) (UniProt P35869). The description is as above.
Test [5] concerns the target MYC-AhR (120-424) (UniProt P35869). Described as above.
For test [6], the target named is MYC-AhR (1-424) (UniProt P35869). Described as above.
Test [7] deals with MYC-tagged STING (WT) (UniProt Q86WV6). Described as above.
Test [8] deals with MYC-STING (140-379) (UniProt Q86WV6). The description is as above.
Test [9] concerns the target MYC-tagged STING (WT) (UniProt Q86WV6). Nature of the test: co-IP; HEK293T cells transfected with MYC-STING and HA-AhR and treated with the AhR inhibitor SR1.

Chains of the proteins cited; added tags and fusions are not shown. Lines headed by an entry give the natural chain unless they say otherwise; changes in a name come on top. A line that says so, or that is headed by a name, gives the form on record, which may keep a tag or linker. Residues count along the entry.
UniProt Q86WV6: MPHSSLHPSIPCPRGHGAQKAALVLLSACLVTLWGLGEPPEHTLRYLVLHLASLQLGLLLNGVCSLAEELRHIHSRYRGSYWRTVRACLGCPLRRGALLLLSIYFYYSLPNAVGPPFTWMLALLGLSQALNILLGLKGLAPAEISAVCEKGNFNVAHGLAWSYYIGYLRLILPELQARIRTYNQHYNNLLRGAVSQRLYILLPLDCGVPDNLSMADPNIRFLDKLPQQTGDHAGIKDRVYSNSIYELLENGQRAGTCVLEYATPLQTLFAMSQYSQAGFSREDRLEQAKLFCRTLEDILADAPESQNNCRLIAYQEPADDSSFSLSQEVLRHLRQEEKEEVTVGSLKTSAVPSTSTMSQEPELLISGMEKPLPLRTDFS
MYC-STING (140-379): residues 140-379 of Q86WV6
UniProt P35869: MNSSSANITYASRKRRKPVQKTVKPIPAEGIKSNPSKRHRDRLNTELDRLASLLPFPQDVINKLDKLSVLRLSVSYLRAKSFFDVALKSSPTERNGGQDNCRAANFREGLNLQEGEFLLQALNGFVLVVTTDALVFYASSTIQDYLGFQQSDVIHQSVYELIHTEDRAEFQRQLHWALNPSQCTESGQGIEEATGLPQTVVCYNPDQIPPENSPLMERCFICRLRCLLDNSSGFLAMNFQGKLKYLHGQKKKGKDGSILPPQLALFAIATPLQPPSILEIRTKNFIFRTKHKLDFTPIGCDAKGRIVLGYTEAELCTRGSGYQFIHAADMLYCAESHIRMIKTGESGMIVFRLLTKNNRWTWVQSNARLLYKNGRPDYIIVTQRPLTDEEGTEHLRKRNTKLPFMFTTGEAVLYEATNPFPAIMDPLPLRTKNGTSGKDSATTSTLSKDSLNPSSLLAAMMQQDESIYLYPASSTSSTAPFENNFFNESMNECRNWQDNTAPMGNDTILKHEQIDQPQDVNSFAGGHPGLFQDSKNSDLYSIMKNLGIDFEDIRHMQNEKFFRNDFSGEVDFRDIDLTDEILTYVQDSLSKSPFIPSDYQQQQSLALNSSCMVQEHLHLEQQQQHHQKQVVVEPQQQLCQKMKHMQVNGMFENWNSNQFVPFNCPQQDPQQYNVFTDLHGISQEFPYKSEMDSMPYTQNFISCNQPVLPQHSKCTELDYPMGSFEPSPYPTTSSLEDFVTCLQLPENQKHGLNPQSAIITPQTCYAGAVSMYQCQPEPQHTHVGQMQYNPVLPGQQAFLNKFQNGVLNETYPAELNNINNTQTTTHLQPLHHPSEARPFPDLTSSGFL
MYC-AhR (1-424): residues 1-424 of P35869
MYC-AhR (1-120): residues 1-120 of P35869
MYC-AhR (120-424): residues 120-424 of P35869
MYC-AhR (1-277;424-848) (P35869, form named): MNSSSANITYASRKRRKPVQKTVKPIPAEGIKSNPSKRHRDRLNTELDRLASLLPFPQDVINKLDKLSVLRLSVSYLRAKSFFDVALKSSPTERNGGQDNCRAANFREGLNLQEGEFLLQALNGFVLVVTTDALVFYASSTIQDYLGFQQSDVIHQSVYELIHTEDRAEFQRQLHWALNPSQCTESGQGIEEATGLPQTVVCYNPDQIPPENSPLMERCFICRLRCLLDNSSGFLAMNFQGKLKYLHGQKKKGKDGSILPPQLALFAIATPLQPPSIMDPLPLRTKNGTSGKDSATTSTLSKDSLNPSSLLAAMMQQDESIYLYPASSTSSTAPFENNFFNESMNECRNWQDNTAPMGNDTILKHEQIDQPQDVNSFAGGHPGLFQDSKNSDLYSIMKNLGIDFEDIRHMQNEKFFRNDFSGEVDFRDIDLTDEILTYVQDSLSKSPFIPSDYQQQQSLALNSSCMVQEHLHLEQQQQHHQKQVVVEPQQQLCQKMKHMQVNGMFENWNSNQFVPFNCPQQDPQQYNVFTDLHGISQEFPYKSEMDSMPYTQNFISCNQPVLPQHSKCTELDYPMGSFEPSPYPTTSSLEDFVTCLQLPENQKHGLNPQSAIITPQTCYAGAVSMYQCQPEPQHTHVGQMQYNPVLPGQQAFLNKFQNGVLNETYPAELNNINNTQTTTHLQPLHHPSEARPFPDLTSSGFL

These are yes or no findings as the source states them, for the method shown. In cells and extracts the contact can be indirect. Some results given as binding are weak or reduced against the parent protein; the word gives no strength.

With “AhR (endogenous) (from UniProt P35869 11-848)”, the binding entry in test [1] is given as “binds”.
For “HA-STING (WT) (from UniProt Q86WV6 1-379)”, the binding result is “binds” in test [2]; “binds weakly” in test [3]; “binds” in test [4]; “binds weakly” in [5]; “binds weakly” in test [6].
On to “HA-tagged AhR (WT) (from UniProt P35869 11-848)”, for which the results for the binding result in [7], in [8] and in test [9] were “binds”, “binds” and “no binding (condition: with SR1 (AhR inhibitor))”, respectively.

(Values after PMC10480448.)
